This note sets out measurements from article PMC4336329 (PLoS ONE, 2015).

The campaign covered roughly 310,000 compounds. About 2,200 (0.71%) showed an effect of 50% or more. Effects have a minus sign here. This is one part of the list.

This experiment deals with human ether-à-go-go-related gene (hERG) potassium channel (human, UniProt Q12809). Nature of the experiment: primary screen, population patch clamp on CHO cells stably expressing hERG.
Chain of human ether-à-go-go-related gene (hERG) potassium channel (Q12809 whole entry, looked up): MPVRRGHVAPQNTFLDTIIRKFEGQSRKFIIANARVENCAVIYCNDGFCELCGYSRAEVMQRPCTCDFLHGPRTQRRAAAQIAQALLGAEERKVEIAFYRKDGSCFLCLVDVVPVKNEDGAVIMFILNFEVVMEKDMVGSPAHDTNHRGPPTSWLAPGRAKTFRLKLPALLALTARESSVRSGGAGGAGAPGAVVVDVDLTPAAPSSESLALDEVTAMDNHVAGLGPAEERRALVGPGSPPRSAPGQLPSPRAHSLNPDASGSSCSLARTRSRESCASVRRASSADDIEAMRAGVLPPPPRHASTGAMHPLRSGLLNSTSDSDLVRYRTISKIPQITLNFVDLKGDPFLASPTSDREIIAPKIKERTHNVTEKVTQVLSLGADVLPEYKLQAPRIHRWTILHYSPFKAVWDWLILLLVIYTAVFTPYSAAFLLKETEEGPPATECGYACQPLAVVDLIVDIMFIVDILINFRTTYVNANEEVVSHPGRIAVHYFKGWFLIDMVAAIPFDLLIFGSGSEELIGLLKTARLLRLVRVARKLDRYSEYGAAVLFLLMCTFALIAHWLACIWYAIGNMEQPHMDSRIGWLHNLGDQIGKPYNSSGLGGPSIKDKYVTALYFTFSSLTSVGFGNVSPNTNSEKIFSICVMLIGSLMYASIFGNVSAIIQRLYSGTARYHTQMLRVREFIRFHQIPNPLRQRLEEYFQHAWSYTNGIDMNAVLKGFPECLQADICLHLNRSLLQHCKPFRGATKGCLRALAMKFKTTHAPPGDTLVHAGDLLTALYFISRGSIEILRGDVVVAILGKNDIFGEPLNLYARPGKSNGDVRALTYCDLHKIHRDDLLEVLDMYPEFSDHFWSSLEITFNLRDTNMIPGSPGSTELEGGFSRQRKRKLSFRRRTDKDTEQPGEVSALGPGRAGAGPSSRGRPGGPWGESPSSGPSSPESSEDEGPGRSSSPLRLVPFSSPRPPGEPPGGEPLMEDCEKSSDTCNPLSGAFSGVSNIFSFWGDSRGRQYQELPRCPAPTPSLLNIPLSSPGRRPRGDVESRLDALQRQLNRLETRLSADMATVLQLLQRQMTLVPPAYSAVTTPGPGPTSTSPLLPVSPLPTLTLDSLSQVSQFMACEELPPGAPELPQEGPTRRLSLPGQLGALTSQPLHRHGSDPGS
For `Nc1ncc(Br)cc1S(=O)(=O)Nc1cc(C(F)(F)F)cc(C(F)(F)F)c1`, the “hERG current change (%, negative = inhibition) at 1uM” value was 19.5%.
As to `COC(=O)c1c(C)oc2cc(Br)c(OCC(=O)C(C)(C)C)cc12`, the “hERG current change (%, negative = inhibition) at 1uM” value was determined as 16.2%.
As to `CC(=O)c1ccc(OC(C)c2nc3ccccc3s2)cc1` (stereo not drawn), the “hERG current change (%, negative = inhibition) at 1uM” value was 4.54%.
For `C=CCN(C(=O)CCC(=O)Nc1cc(C)on1)C(C(=O)NC1CCCC1)c1ccc(CC)cc1` (stereo not drawn), the “hERG current change (%, negative = inhibition) at 1uM” value came out at 5.83%.
On to `COCC(C)NC(=O)CSc1ncnc2sc(-c3ccccc3)cc12` (stereo not drawn), for which the “hERG current change (%, negative = inhibition) at 1uM” value was determined as 10.5%.
As for `C=CCC1(Cl)C(=O)C(Cl)=C(N2CCN(C)CC2)C1(OC)OC` (stereo not drawn), the “hERG current change (%, negative = inhibition) at 1uM” value was determined as 18.3%.
Consider `COc1ccc(S(=O)(=O)N2CCCOC2CNC(=O)C(=O)NCc2ccco2)cc1` (stereo not drawn), for which the “hERG current change (%, negative = inhibition) at 1uM” value is given as 5.12%.
Under `Cc1cccc(NS(=O)(=O)c2cccc(C(=O)NNC(=O)c3ccccc3O)c2)c1` stands 12.8%.
The figure for `Cc1cc(C(=O)N2CCCC(N3CCN(c4cccc(C(F)(F)F)c4)CC3)C2)no1` (stereo not drawn) is 7.36%.
Under `Cc1ccc(Nc2nc(N)nc(CSc3nnc(C)s3)n2)cc1` stands 10%.
`CCOC(=O)C1C(=O)NC(c2ccccc2)=NC1c1ccccc1` (stereo not drawn): the “hERG current change (%, negative = inhibition) at 1uM” value amounted to 11.9%.
Under `COC(=O)c1cccc(NC(=O)CC2NCCNC2=O)c1` (stereo not drawn) stands 6.28%.
Take `O=C(c1cc([N+](=O)[O-])ccc1N1CCNCC1)N1CCOCC1`: the “hERG current change (%, negative = inhibition) at 1uM” value is 6.98%.
The figure for `O=C(O)C1Cc2ccccc2CN1C(=O)c1ccccc1Cl` (stereo not drawn) is 18.3%; for `COc1cccc(N2CCN(C3C4CC5CC(C4)CC3C5)CC2)c1` (stereo not drawn) it is 9.98%; for `Cc1ccc(-n2cnc3c(sc4nc(N5CCOCC5)c5c(c43)CCCC5)c2=O)cc1` it is 16.3%.
Take `O=C(CN1C(=O)CSc2ccc(S(=O)(=O)N3CCOCC3)cc21)N1CCCCC1`: the “hERG current change (%, negative = inhibition) at 1uM” value is listed as 16.2%.
For `COc1cnc(-c2cccc(C(F)(F)F)c2)nc1OC`, the “hERG current change (%, negative = inhibition) at 1uM” value is reported as 15.6%.
Consider `COc1ccc(-c2nc(SC(CC(=O)NCCN3CCOCC3)c3cccs3)n[nH]2)cc1` (stereo not drawn), for which the “hERG current change (%, negative = inhibition) at 1uM” value was 12.6%.
Consider `COc1ccc(/C=N\NC(=O)c2ccccc2F)cc1COc1ccc(F)cc1`, for which the “hERG current change (%, negative = inhibition) at 1uM” value worked out at 16.6%.
The figure for `CC(Oc1ccccc1)C(=O)N=C1SC2CS(=O)(=O)CC2N1Cc1ccc(F)cc1` (stereo not drawn) is 7.27%; for `COc1ccc(NC(=O)COC(=O)c2ccc(-n3nc(C)cc3C)cc2)cc1OC` it is 16%.
On to `O=C(CSc1ncnc2ccccc12)Nc1ccc2c(c1)OCCO2`, for which the “hERG current change (%, negative = inhibition) at 1uM” value amounted to 11.7%.
For `Cc1cc(C(=O)N2CCCC(CCC(=O)N3CCN(c4ccccn4)CC3)C2)c(C)o1` (stereo not drawn), the “hERG current change (%, negative = inhibition) at 1uM” value came out at 4.65%.
